Sequences with one replicate were seen in a single cluster, so their values are uncertain.

The data set concerns ATP. As to the kind of experiment: switch fluorescence ratio, 500 uM ATP over buffer (Cy3 cluster intensity, sum of 5 cycles each) (fold (ratio)); higher = stronger signal-on switching upon ATP binding; sequences stand for … in TCGTCGGCAGCGTCAGATGTGTATAAGAGACAGTTTTTTTTTTTTTTTTTTTTTTTTT…TC. Conditions: aptamer strand: ATP DNA aptamer (quencher-CACCTGGGGGAGTATTGCGGAGGAAGG + anchor), 100 nM annealed; ATP concentration: 500 uM; one replicate. The procedure, abridged: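 After annealing to 100 nM quencher-labelled ATP aptamer, Cy3-labelled switching-strand clusters on a modified Illumina MiSeq flow-cell were imaged in selection buffer. A second image followed after 15 min with 500 uM ATP at 22 °C, and five such buffer/ATP cycles were done, each separated by NaOH stripping and re-annealing. The fluorescence ratio, averaged per switch-domain sequence, is summed target-cycle over summed buffer-cycle Cy3 intensity per cluster, with clusters outside 100-1000 RFU excluded.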
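Also: ATP exposure 15 min at 22 °C before imaging.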

Consider ACTTCTTTCA, for which the switch fluorescence ratio was found to be 0.968.

Turning to GGGTTGTGGC, the switch fluorescence ratio was determined as 0.976.

Turning to TCTGTTCCGA, the switch fluorescence ratio worked out at 1.11.

With GACGGTCTTC, the switch fluorescence ratio worked out at 1.04.

Consider CCGCTCATTT, for which the switch fluorescence ratio is 1.27.

Regarding AAAGCTTTCT, the switch fluorescence ratio was found to be 1.01.

With GGGTATGCCT, the switch fluorescence ratio amounted to 1.01.

On to CGTAAGGAGC, for which the switch fluorescence ratio was determined as 0.992.

Turning to TCGTTGGGTC, the switch fluorescence ratio turned out to be 0.987.

With GAAAACGAGG, the switch fluorescence ratio is 1.07.

For ACCCGATGCG, the switch fluorescence ratio was 1.06.

In the case of AACCTTCATT, the switch fluorescence ratio stood at 2.23.

With CCTGTAGAAT, the switch fluorescence ratio stood at 1.02.

GCCGATTGGC: the switch fluorescence ratio is 1.01.

On to GTTTAACGAC, for which the switch fluorescence ratio amounted to 0.993.

For GAACTGCAAT, the switch fluorescence ratio stood at 1.75.

ATTTAAGTTC: the switch fluorescence ratio was 1.04.

Turning to GGCATCTACG, the switch fluorescence ratio is 1.08.

With GGCGACAGC, the switch fluorescence ratio was determined as 0.988.

In the case of GGAGGGTGAC, the switch fluorescence ratio worked out at 1.01.

With TGCACCAACT, the switch fluorescence ratio is 1.98.

Take ACTTGTACCA: the switch fluorescence ratio was 1.2.

Consider TGCATGATGA, for which the switch fluorescence ratio was determined as 1.01.

GCGCGTCTCG: the switch fluorescence ratio amounted to 1.

Turning to TACATCGAGA, the switch fluorescence ratio was found to be 1.02.

With GAATATGGGA, the switch fluorescence ratio is 0.973.

For ATTAGCCAAA, the switch fluorescence ratio was 0.99.

With GTATTAGTAC, the switch fluorescence ratio came to 0.959.

Regarding TTGTCGAGAG, the switch fluorescence ratio was found to be 1.02.

For the sequence AGTTCGTATC, the switch fluorescence ratio came to 1.

For AGTACATCGG, the switch fluorescence ratio turned out to be 0.994.

With ACACATTCTA, the switch fluorescence ratio turned out to be 1.04.

Take CCCATTTTGA: the switch fluorescence ratio was 1.02.

As for GTACTCATGT, the switch fluorescence ratio is 0.997.

As for CGTCTATGCT, the switch fluorescence ratio was found to be 1.

GAGCTATCT: the switch fluorescence ratio was determined as 1.03.

CACGGGACGG: the switch fluorescence ratio is 1.21.

As for AGAACGGGT, the switch fluorescence ratio is 1.

Take GAGTCTGACC: the switch fluorescence ratio is 0.987.

As to ATCCGTGAAT, the switch fluorescence ratio was 1.25.

CGTTCGGGAT: the switch fluorescence ratio was found to be 1.02.

TGTGGAGGCG: the switch fluorescence ratio was found to be 1.02.

For TGTCGTAGGT, the switch fluorescence ratio worked out at 0.951.

Regarding GACGGTGC, the switch fluorescence ratio was found to be 1.91.

Regarding TACCGGTTCT, the switch fluorescence ratio worked out at 1.02.

As to TTAATGGGG, the switch fluorescence ratio is 0.941.

Regarding CTGACTCCCG, the switch fluorescence ratio amounted to 1.4.

Consider GGGCTGGCTT, for which the switch fluorescence ratio turned out to be 0.987.

Take CACATAAAA: the switch fluorescence ratio was determined as 0.994.

As for CGAGTACTCG, the switch fluorescence ratio was found to be 0.95.

Take TTGAGAAGTA: the switch fluorescence ratio was 0.977.

Consider TCGATTGAAT, for which the switch fluorescence ratio worked out at 0.964.

As for ATATGCGGGA, the switch fluorescence ratio was 0.944.

Take ATCGGTGCA: the switch fluorescence ratio amounted to 1.

Take ATACGGTTAA: the switch fluorescence ratio was determined as 1.07.

In the case of ACTTTAAGAC, the switch fluorescence ratio amounted to 1.07.

As for TACAAATTGC, the switch fluorescence ratio is 1.14.

As to AAAAGTACT, the switch fluorescence ratio was 1.09.

Regarding TGCCATAAAT, the switch fluorescence ratio worked out at 0.983.

Regarding CAAGGAGTGC, the switch fluorescence ratio was 1.05.

For TGCGGTATCG, the switch fluorescence ratio was found to be 1.03.

CGCCCCCCGT: the switch fluorescence ratio worked out at 1.7.

Regarding ACAAGAGAAC, the switch fluorescence ratio amounted to 1.05.

As to AGTACGGGA, the switch fluorescence ratio was 1.08.

As for ATGGTTCACG, the switch fluorescence ratio was determined as 1.04.

With GTTCTACACA, the switch fluorescence ratio came out at 1.05.

Take AATAGTGGCC: the switch fluorescence ratio was 0.933.

For the sequence AATATTGGTC, the switch fluorescence ratio came to 0.964.

TTCCCGAAGG: the switch fluorescence ratio was found to be 1.01.

On to TCATTGCACA, for which the switch fluorescence ratio was found to be 1.37.

For ACACCGGCAT, the switch fluorescence ratio is 1.19.

As for ACGTAGAGTC, the switch fluorescence ratio was found to be 1.11.

Regarding ACGGAACTAG, the switch fluorescence ratio was 1.17.

As for GATGGGGCAT, the switch fluorescence ratio was 0.933.

As to CAGTGAGGAG, the switch fluorescence ratio is 0.989.

For the sequence TGCATCGATA, the switch fluorescence ratio stood at 1.01.

On to CGAGTCATCA, for which the switch fluorescence ratio amounted to 1.01.

As for ACCACAGTGT, the switch fluorescence ratio was determined as 1.4.

Regarding GTTTAGCTAT, the switch fluorescence ratio stood at 1.03.

Take GATCAAGCAA: the switch fluorescence ratio was found to be 1.64.

GGCATTAACT: the switch fluorescence ratio amounted to 1.03.

Turning to GAGGCGCGCT, the switch fluorescence ratio was 1.07.

For the sequence AATTAGTCGC, the switch fluorescence ratio stood at 1.03.

Consider GCACACGTTG, for which the switch fluorescence ratio was 1.02.

Regarding AGGAAGTTCG, the switch fluorescence ratio came to 0.991.

As for CCTTGTGACT, the switch fluorescence ratio turned out to be 0.986.

Turning to GCTGACTAAC, the switch fluorescence ratio was found to be 1.12.

With CGGGTTTTCA, the switch fluorescence ratio was 1.01.

ACGAGTCCGG: the switch fluorescence ratio is 1.65.

Regarding CGGAGTAGAG, the switch fluorescence ratio was 0.979.

In the case of CTTTGGACAC, the switch fluorescence ratio came out at 1.05.

For the sequence GATGCCTACT, the switch fluorescence ratio came to 1.03.

Turning to ACAGGGTAT, the switch fluorescence ratio is 1.01.

CGCGGGCAAA: the switch fluorescence ratio turned out to be 1.07.

As for TGTGCGCTAA, the switch fluorescence ratio is 1.06.

For the sequence CCCCTACTAG, the switch fluorescence ratio was found to be 1.29.

GTTGTGGT: the switch fluorescence ratio worked out at 0.955.

TTATCTGCTC: the switch fluorescence ratio was found to be 1.02.

With TTCGCTAATG, the switch fluorescence ratio is 1.12.

Turning to ATCCTGCATC, the switch fluorescence ratio was determined as 1.48.

Turning to CACGCTGGGA, the switch fluorescence ratio was determined as 1.07.

Take TCGGTTAATC: the switch fluorescence ratio came out at 1.02.

Turning to CGTCGGGCC, the switch fluorescence ratio is 0.992.

As for GGTATTCGTT, the switch fluorescence ratio was found to be 0.972.

With GGGTTGCATT, the switch fluorescence ratio was found to be 1.01.

Take ACGGTCAATT: the switch fluorescence ratio was determined as 1.04.

For the sequence TTTGTTCACC, the switch fluorescence ratio is 0.966.

Turning to GTTTGTGCGC, the switch fluorescence ratio was 0.987.

For TGTATGAAAA, the switch fluorescence ratio came to 1.02.

Consider GCCTACATGT, for which the switch fluorescence ratio was found to be 0.977.

Turning to CAGACAGTCT, the switch fluorescence ratio came out at 1.05.

For the sequence CTTTATCATG, the switch fluorescence ratio is 1.03.

Consider GTTTGCAGAT, for which the switch fluorescence ratio is 1.09.

Turning to GGGTAAAATT, the switch fluorescence ratio amounted to 0.947.

For the sequence GTGATTTCGT, the switch fluorescence ratio amounted to 0.973.

Consider AGATCAGTCC, for which the switch fluorescence ratio worked out at 1.04.

On to ATGCATAAGC, for which the switch fluorescence ratio amounted to 1.06.

For AGAATGTTAC, the switch fluorescence ratio is 1.06.

Consider TAAGAGAAAA, for which the switch fluorescence ratio was determined as 1.04.

For CAGATTAGAT, the switch fluorescence ratio was 0.989.

The values are drawn from the supplement of paper PMC10126150.
